Experimental data taken from PubChem BioAssay AID504832 (National Center for Advancing Translational Sciences (NCATS), 2011).
Out of some 310,000 compounds screened, about 18,000 (5.8%) were called active. Inconclusive means that the source gave no clear call. Such entries were picked first, then a sample of the others. The call rests on the fitted dose curve; in most records, active means well fitted inhibition curve with a large enough effect; inconclusive means small, poorly fitted or top-dose-only effect, or another doubt; inactive means no such curve, though single readings can be large or run the other way. No potency is given beside an inconclusive call; the fits are too rough.

Assay: Primary qHTS for delayed death inhibitors of the malarial parasite plastid, 48 hour incubation
Settings: P. falciparum luciferase growth in erythrocytes; series mostly up to 28.7 µM; activity change, negative = inhibition: at the top concentration
Outline: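 Growth was read as firefly luciferase luminescence after a 48 h, 37 C, 5% CO2 exposure of compounds to reporter-bearing P. falciparum cultures (0.1% parasitemia, 2% hematocrit final) in Albumax-supplemented RPMI 1640.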
On the % scale 0 is the no-effect control and ±100 the full control effect; potency means the concentration at half of the fitted maximal effect; tags describe the fitted curve by direction and shape.

SMILES	Potency	activity change, negative = inhibition
CCOC(=O)c1cc(-c2ccco2)nc2c1c(C)nn2CCC#N	active: 8.28 µM	–
O=C(NCc1ccco1)C1CCN(C(=O)c2ccc(Cl)cc2)CC1	–	inactive: -25.8%
Cc1ncc([N+](=O)[O-])n1CCOC(=O)NC(NCc1cccnc1)C(Cl)(Cl)Cl (configuration not stated)	inconclusive [inhibitor, partial curve]	–
CSc1c(CC(=O)Nc2ccccc2)n(C)c2ccccc12	active: 10.4 µM	–
CN1CCN(C(=S)C(=O)Nc2ccc(Br)cc2)CC1	–	inactive: 17.4%
O=C(Nc1ccc(OC(F)F)cc1)c1cc(S(=O)(=O)N2CCCCC2)ccc1N1CCOCC1	inconclusive [inhibitor, single point]	–
O=C(Cc1ccc(Cl)cc1)NCc1ccccc1Cl	–	inactive: 119%
C=CCn1c(=O)c2c(nc3n2CC(C)CN3Cc2ccccc2)n(C)c1=O (configuration not stated)	inconclusive [inhibitor, partial curve, poor fit]	–
COc1ccccc1NC(=O)CC1C(=O)Nc2c1c(=O)n(C)c(=O)n2C (configuration not stated)	inconclusive [inhibitor, partial curve, poor fit]	–
c1ccn2c(SCc3ccc4c(c3)OCO4)nnc2c1	–	inactive: 60.1%
COc1ccc(-n2nc3c(N4CCCC(C(=O)NCc5ccccc5C)C4)nnc(C)c3c2C)cc1 (configuration not stated)	active: 11.7 µM	–
N#CC1(NC(=O)COC(=O)c2cc(=O)[nH]c3ccccc23)CCCCC1	inconclusive [inhibitor, single point]	–
CC(C)CNC(=O)CC(c1ccccc1)c1c(O)ccc2ccccc12 (configuration not stated)	inconclusive [inhibitor, single point]	–
CCOC(=O)C1(Cc2cccc(OC)c2)CCN(Cc2cnc(C)s2)CC1	inconclusive [inhibitor, single point]	–
CC1=Nc2ccccc2NC(=O)C1Sc1nnc(C)s1 (configuration not stated)	inconclusive [inhibitor, single point]	–
Cc1cc(C)nc(NC(=NCCc2c[nH]c3ccccc23)NC(=O)C(C)(C)C)n1	active: 10.4 µM	–
COC(=O)C1CCN(c2cnccn2)CC1	–	inactive: 57.9%
CC(=O)[C@@H]1[C@@H](C(=O)c2ccc(C)cc2)[C@]2(C(=O)Nc3ccccc32)[C@H]2C=Cc3cc(F)ccc3N12	inconclusive [inhibitor, single point]	–
COc1ccc(-n2c(COc3cccc(C)c3)nnc2SCC(=O)NCc2ccco2)cc1	inconclusive [inhibitor, partial curve]	–
CCCCCOc1ccc(CSCCNC(=S)Nc2ccccc2)cc1	inconclusive [inhibitor, single point]	–
Cc1c(F)cccc1NS(=O)(=O)c1ccc2c(c1)NC(=O)CO2	inconclusive [inhibitor, partial curve, poor fit]	–

SMILES	Potency	activity change, negative = inhibition
CCCCCCn1c(CN2CCN(C(=O)c3ccco3)CC2)nc2c1c(=O)n(C)c(=O)n2C	inconclusive [inhibitor, partial curve]	–
CCOc1ccc(NC(=O)COc2ccccc2)c([N+](=O)[O-])c1	–	inactive: 130%
COc1ccc(/C=N/NC(=S)Nc2ccccc2)cc1COc1ccc(Br)cc1	inconclusive [inhibitor, partial curve]	–
O=C(NCc1ccccc1)NC1CCS(=O)(=O)C1 (configuration not stated)	–	inactive: 9.37%
O=C(N=Nc1c(O)[nH]c2ccccc12)c1cc(-c2cccs2)[nH]n1	inconclusive [inhibitor, partial curve, poor fit]	–
Cc1ccc(-n2nc(C)c(C(=O)N3CCN(C(=O)c4ccco4)CC3)c2-n2cccc2)cc1	inconclusive [inhibitor, partial curve]	–
COc1cc(NC(=O)c2cc([N+](=O)[O-])ccc2NC(=O)CNC2CCCCC2C)cc(OC)c1 (configuration not stated)	active: 0.415 µM	–
O=C(NCc1ccccc1)C1CCN(S(=O)(=O)N2CCCCCC2)CC1	inconclusive [inhibitor, partial curve]	–
CCCn1c(SCC(=O)Nc2cccc(C)n2)nnc1-c1ccco1	inconclusive [inhibitor, full curve, poor fit]	–
C#CCOCCOCCOCCNc1nc(N2CCN(C(=O)[C@H]([C@@H](C)CC)n3cc([C@@H](N)Cc4ccc(O)cc4)nn3)CC2)nc(N2CCN(C(=O)[C@H](Cc3ccc(O)cc3)n3cc([C@@H](N)CC(C)C)nn3)CC2)n1	active: 4.65 µM	–
Cc1cc(C)nc(NC(=NCCc2c[nH]c3ccccc23)NC(=O)Nc2ccc(Cl)c(Cl)c2)n1	inconclusive [inhibitor, partial curve, poor fit]	–
COc1ccc(-c2nnc(SCC(=O)c3cccs3)n2-c2ccc(Cl)cc2)cc1	inconclusive [inhibitor, partial curve, poor fit]	–
O=C(O)c1cc(-c2ccc(Cl)c(Cl)c2)n(-c2ccccc2)n1	–	inactive: 5.94%
CCOC(=O)c1cn(Cc2cccc(Cl)c2)nn1	–	inactive: 14.7%
COc1cccc(CNc2ncc(C(=O)Nc3cc(OC)c(OC)c(OC)c3)c(C)n2)c1	active: 10.4 µM	–
CN(CC(=O)Nc1ccc(OC(F)(F)F)cc1)C(=O)Cn1c(=O)cnc2ccccc21	inconclusive [inhibitor, single point]	–
CCc1ccc(CNC(=O)CCn2ccc3cc(S(=O)(=O)N4CCCC4)ccc32)cc1	inconclusive [inhibitor, partial curve]	–
Cc1ccc(Cl)cc1N1CCN(C(=O)CN2C(=O)c3cccc4cccc2c34)CC1	inconclusive [inhibitor, single point]	–
c1cncc(Nc2c3ccccc3nc3ccccc23)c1	inconclusive [inhibitor, partial curve]	–
COc1cc2nc(CN3CCN(S(=O)(=O)c4ccccc4)CC3)[nH]c(=O)c2cc1OC	inconclusive [inhibitor, partial curve, poor fit]	–
COc1ccc(NC(=O)C2CC(=O)N(c3ccccc3Cl)C2)c(OC)c1 (configuration not stated)	–	inactive: -5.27%
